Experimental data taken from the supplement of paper PMC4604168 (melanoma cell lines).
The list shows a part of the results. Most values come without repeats; read them as rough.

The compounds below were run on MZ2-MEL (assay: cell count relative to DMSO control; melanoma cells; higher = more viable cells). Details: library dose: low library concentration; 72 h.
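Note: cell number obtained by counting DAPI-stained nuclei in high-throughput microscope images with image analysis software, screen run in 1,536-well plates.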

| Structure (SMILES) | cell count [%] |
| --- | --- |
| Cn1c(=O)n(-c2ccc(C(C)(C)C#N)cc2)c2c3cc(-c4cnc5ccccc5c4)ccc3ncc21 + C[C@@H]1CCN(C(=O)CC#N)C[C@@H]1N(C)c1ncnc2[nH]ccc12 [CP690550] (first compound 0.004 µM, partner dose 1 µM) | 106 |
| Cc1cn(-c2cc(NC(=O)c3ccc(C)c(Nc4nccc(-c5cccnc5)n4)c3)cc(C(F)(F)F)c2)cn1 [nilotinib] + C[C@@H]1CCN(C(=O)CC#N)C[C@@H]1N(C)c1ncnc2[nH]ccc12 [CP690550] (first compound 0.2 µM, partner dose 1 µM) | 110 |
| Cn1c(=O)n(-c2ccc(C(C)(C)C#N)cc2)c2c3cc(-c4cnc5ccccc5c4)ccc3ncc21 + NC(=O)Nc1cc(-c2cccc(F)c2)sc1C(=O)N[C@H]1CCCNC1 [AZD7762] (first compound 0.004 µM, partner dose 0.02 µM) | 102 |

These compounds were tested on MeWo in the same assay as above. Details: library dose: low library concentration; 72 h.

| Structure (SMILES) | cell count [%] |
| --- | --- |
| CC(C)C[C@H](NC(=O)[C@H](Cc1ccccc1)NC(=O)c1cnccn1)B(O)O [Bortezomib] + O=c1cc(-c2cccc3c2Sc2ccccc2S3)oc(N2CCOCC2)c1 [KU55933] (first compound 0.001 µM, partner dose 1 µM) | 76 |
| COc1ccc(C2=N[C@@H](c3ccc(Cl)cc3)[C@@H](c3ccc(Cl)cc3)N2C(=O)N2CCNC(=O)C2)c(OC(C)C)c1 [Nutlin-3] + CN(C)S(=O)(=O)c1ccc2c(c1)/C(=C/c1cc3c([nH]1)CCCC3)C(=O)N2 [SU6656] (first compound 0.1 µM, partner dose 0.4 µM) | 92 |
| Cc1cc(Nc2cc(N3CCN(C)CC3)nc(/C=C/c3ccccc3)n2)n[nH]1 + CCc1ccc(CCOc2ccc(CC3SC(=O)NC3=O)cc2)nc1 [pioglitazone] (first compound 0.04 µM, partner dose 2 µM) | 115 |
| Cn1c(=O)n(-c2ccc(C(C)(C)C#N)cc2)c2c3cc(-c4cnc5ccccc5c4)ccc3ncc21 + O=C(Nc1ccccc1)c1cc([N+](=O)[O-])ccc1Cl [GW9662] (first compound 0.004 µM, partner dose 2 µM) | 91.4 |
| Cc1cn(-c2cc(NC(=O)c3ccc(C)c(Nc4nccc(-c5cccnc5)n4)c3)cc(C(F)(F)F)c2)cn1 [nilotinib] + COc1cc2c(Oc3ccc4[nH]c(C)cc4c3F)ncnc2cc1OCCCN1CCCC1 [cediranib] (first compound 0.2 µM, partner dose 0.4 µM) | 96.3 |
| Cc1cc(Nc2cc(N3CCN(C)CC3)nc(/C=C/c3ccccc3)n2)n[nH]1 + OCCn1cc(-c2cnc3nnn(Cc4ccc5ncccc5c4)c3n2)cn1 [PF04217903] (first compound 0.04 µM, partner dose 1 µM) | 101 |
| CC(C)C[C@H](NC(=O)[C@H](Cc1ccccc1)NC(=O)c1cnccn1)B(O)O [Bortezomib] + NCC(=O)Nc1ccc(-n2nc(C(F)(F)F)cc2-c2ccc3c(ccc4ccccc43)c2)cc1 [OSU03012] (first compound 0.001 µM, partner dose 1 µM) | 58.9 |
| Cn1c(=O)n(-c2ccc(C(C)(C)C#N)cc2)c2c3cc(-c4cnc5ccccc5c4)ccc3ncc21 + COc1cc(Nc2ncc(F)c(Nc3ccc4c(n3)NC(=O)C(C)(C)O4)n2)cc(OC)c1OC [Tamatinib] (first compound 0.004 µM, partner dose 0.4 µM) | 80.7 |
| COc1ccc(C2=N[C@@H](c3ccc(Cl)cc3)[C@@H](c3ccc(Cl)cc3)N2C(=O)N2CCNC(=O)C2)c(OC(C)C)c1 [Nutlin-3] + CCN(CC)CCCCNc1ncc2cc(-c3cc(OC)cc(OC)c3)c(NC(=O)NC(C)(C)C)nc2n1 [PD173074] (first compound 0.1 µM, partner dose 0.1 µM) | 102 |
| CC(C)C[C@H](NC(=O)[C@H](Cc1ccccc1)NC(=O)c1cnccn1)B(O)O [Bortezomib] + CN(C)S(=O)(=O)c1ccc2c(c1)/C(=C/c1cc3c([nH]1)CCCC3)C(=O)N2 [SU6656] (first compound 0.001 µM, partner dose 0.4 µM) | 94.6 |
| Cc1cn(-c2cc(NC(=O)c3ccc(C)c(Nc4nccc(-c5cccnc5)n4)c3)cc(C(F)(F)F)c2)cn1 [nilotinib] + COc1ccc(COc2ccc(Cc3cnc(N)nc3N)cc2OC)cc1 [GW2580] (first compound 0.2 µM, partner dose 1 µM) | 101 |
| CC(C)C[C@H](NC(=O)[C@H](Cc1ccccc1)NC(=O)c1cnccn1)B(O)O [Bortezomib] + Oc1cc(-c2nc(-c3ccccc3)[nH]c2-c2ccncc2)ccc1Cl [L779450] (first compound 0.001 µM, partner dose 0.2 µM) | 89.5 |
| CC(C)C[C@H](NC(=O)[C@H](Cc1ccccc1)NC(=O)c1cnccn1)B(O)O [Bortezomib] + Cc1cc(N2CCOCC2)cc2[nH]c(-c3c(NC[C@@H](O)c4cccc(Cl)c4)cc[nH]c3=O)nc12 [BMS536924] (first compound 0.001 µM, partner dose 0.2 µM) | 83.5 |
| Cn1c(=O)n(-c2ccc(C(C)(C)C#N)cc2)c2c3cc(-c4cnc5ccccc5c4)ccc3ncc21 + COc1cc2c(Oc3ccc4[nH]c(C)cc4c3F)ncnc2cc1OCCCN1CCCC1 [cediranib] (first compound 0.004 µM, partner dose 0.4 µM) | 90.6 |
| Cc1cn(-c2cc(NC(=O)c3ccc(C)c(Nc4nccc(-c5cccnc5)n4)c3)cc(C(F)(F)F)c2)cn1 [nilotinib] + O=C1NC(=O)/C(=C/c2ccc(-c3ccc(F)cc3O)o2)S1 [AS252424] (first compound 0.2 µM, partner dose 1 µM) | 91.2 |
| CC(C)C[C@H](NC(=O)[C@H](Cc1ccccc1)NC(=O)c1cnccn1)B(O)O [Bortezomib] + Cn1cc(/C=C2\C(=O)Nc3cccnc32)c2ccccc21 [GW441756] (first compound 0.001 µM, partner dose 0.4 µM) | 76.9 |
| Cc1cc(Nc2cc(N3CCN(C)CC3)nc(/C=C/c3ccccc3)n2)n[nH]1 + COc1ccc(COc2ccc(Cc3cnc(N)nc3N)cc2OC)cc1 [GW2580] (first compound 0.04 µM, partner dose 1 µM) | 90.1 |
| Cc1cn(-c2cc(NC(=O)c3ccc(C)c(Nc4nccc(-c5cccnc5)n4)c3)cc(C(F)(F)F)c2)cn1 [nilotinib] + COc1cc(N2CCC(N3CCN(C)CC3)CC2)ccc1Nc1ncc(Cl)c(Nc2ccccc2S(=O)(=O)C(C)C)n1 [NVP-TAE684] (first compound 0.2 µM, partner dose 0.08 µM) | 91.4 |
| CC(C)C[C@H](NC(=O)[C@H](Cc1ccccc1)NC(=O)c1cnccn1)B(O)O [Bortezomib] + O=C1NC(=O)/C(=C/c2ccc(-c3ccc(F)cc3O)o2)S1 [AS252424] (first compound 0.001 µM, partner dose 1 µM) | 98.6 |
| Cc1cc(Nc2cc(N3CCN(C)CC3)nc(/C=C/c3ccccc3)n2)n[nH]1 + CCCCCCCCCCCC1=C(O)C(=O)C=C(O)C1=O [Embelin] (first compound 0.04 µM, partner dose 1.2 µM) | 107 |
| Cn1c(=O)n(-c2ccc(C(C)(C)C#N)cc2)c2c3cc(-c4cnc5ccccc5c4)ccc3ncc21 + Cc1cc(N2CCOCC2)cc2[nH]c(-c3c(NC[C@@H](O)c4cccc(Cl)c4)cc[nH]c3=O)nc12 [BMS536924] (first compound 0.004 µM, partner dose 0.2 µM) | 75.6 |
| Cc1cc(Nc2cc(N3CCN(C)CC3)nc(/C=C/c3ccccc3)n2)n[nH]1 + C=CCn1c(=O)c2cnc(Nc3ccc(N4CCN(C)CC4)cc3)nc2n1-c1cccc(C(C)(C)O)n1 [MK1775] (first compound 0.04 µM, partner dose 0.02 µM) | 94.7 |
| CC(C)C[C@H](NC(=O)[C@H](Cc1ccccc1)NC(=O)c1cnccn1)B(O)O [Bortezomib] + COC(=O)c1sccc1S(=O)(=O)Nc1ccc(Nc2ccccc2)cc1OC [GSK0660] (first compound 0.001 µM, partner dose 1 µM) | 71.1 |
| Cc1cn(-c2cc(NC(=O)c3ccc(C)c(Nc4nccc(-c5cccnc5)n4)c3)cc(C(F)(F)F)c2)cn1 [nilotinib] + O=C(Nc1ccccc1)c1cc([N+](=O)[O-])ccc1Cl [GW9662] (first compound 0.2 µM, partner dose 2 µM) | 96.3 |
| CC(C)C[C@H](NC(=O)[C@H](Cc1ccccc1)NC(=O)c1cnccn1)B(O)O [Bortezomib] + C=CCn1c(=O)c2cnc(Nc3ccc(N4CCN(C)CC4)cc3)nc2n1-c1cccc(C(C)(C)O)n1 [MK1775] (first compound 0.001 µM, partner dose 0.02 µM) | 81.5 |
| Cc1cn(-c2cc(NC(=O)c3ccc(C)c(Nc4nccc(-c5cccnc5)n4)c3)cc(C(F)(F)F)c2)cn1 [nilotinib] + CN(C)S(=O)(=O)c1ccc2c(c1)/C(=C/c1cc3c([nH]1)CCCC3)C(=O)N2 [SU6656] (first compound 0.2 µM, partner dose 0.4 µM) | 100 |
| Cc1cc(Nc2cc(N3CCN(C)CC3)nc(/C=C/c3ccccc3)n2)n[nH]1 + CC1(C)NC(=O)N(c2ccc([N+](=O)[O-])c(C(F)(F)F)c2)C1=O [nilutamide] (first compound 0.04 µM, partner dose 1 µM) | 94.2 |
